Consider 88 molecules from paper PMC4336329 (PLoS ONE, 2015).

The campaign covered roughly 310,000 compounds. About 14,000 (4.5%) showed an effect of 50% or more. Effects have a minus sign here. The list shows a part of the results.
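Further: peak tail current of the secondary pulse compared with the same well before compound.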

The target of the experiment is human ether-à-go-go-related gene (hERG) potassium channel (human, UniProt Q12809). As to the kind of experiment: primary screen, population patch clamp on CHO cells stably expressing hERG.
human ether-à-go-go-related gene (hERG) potassium channel, sequence (Q12809 whole entry, looked up): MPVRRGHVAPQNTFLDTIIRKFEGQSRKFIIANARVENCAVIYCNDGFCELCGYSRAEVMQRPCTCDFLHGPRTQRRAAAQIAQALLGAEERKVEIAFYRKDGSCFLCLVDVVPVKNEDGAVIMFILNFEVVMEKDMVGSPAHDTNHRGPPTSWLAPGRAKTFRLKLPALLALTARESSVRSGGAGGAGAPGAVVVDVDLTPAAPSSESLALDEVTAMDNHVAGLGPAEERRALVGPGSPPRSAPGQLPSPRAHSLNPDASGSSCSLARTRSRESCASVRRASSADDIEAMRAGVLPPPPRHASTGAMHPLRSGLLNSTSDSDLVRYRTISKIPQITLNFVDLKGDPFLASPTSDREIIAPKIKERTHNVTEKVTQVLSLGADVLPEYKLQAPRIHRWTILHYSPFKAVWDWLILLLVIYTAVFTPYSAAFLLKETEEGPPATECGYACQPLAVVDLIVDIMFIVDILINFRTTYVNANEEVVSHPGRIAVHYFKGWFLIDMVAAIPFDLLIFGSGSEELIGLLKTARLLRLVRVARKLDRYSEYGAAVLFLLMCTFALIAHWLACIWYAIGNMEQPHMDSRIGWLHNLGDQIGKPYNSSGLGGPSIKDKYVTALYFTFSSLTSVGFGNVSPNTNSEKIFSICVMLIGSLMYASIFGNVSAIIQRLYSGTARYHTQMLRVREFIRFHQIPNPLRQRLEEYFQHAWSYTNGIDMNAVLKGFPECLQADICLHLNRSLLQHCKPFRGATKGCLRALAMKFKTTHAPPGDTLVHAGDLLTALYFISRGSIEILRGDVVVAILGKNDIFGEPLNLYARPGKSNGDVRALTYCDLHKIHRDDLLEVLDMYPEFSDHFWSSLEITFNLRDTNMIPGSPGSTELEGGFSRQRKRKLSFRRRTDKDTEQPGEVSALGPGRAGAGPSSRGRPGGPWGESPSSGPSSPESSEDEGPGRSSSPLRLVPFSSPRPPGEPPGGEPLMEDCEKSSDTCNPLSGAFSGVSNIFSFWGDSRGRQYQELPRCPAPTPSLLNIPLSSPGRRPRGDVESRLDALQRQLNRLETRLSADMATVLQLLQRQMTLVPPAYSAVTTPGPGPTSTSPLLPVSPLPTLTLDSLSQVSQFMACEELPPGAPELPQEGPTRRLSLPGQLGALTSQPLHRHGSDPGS
Regarding `CCOC(=O)c1ccc(N2C(=O)CC(SCC(=O)Nc3ccc(S(N)(=O)=O)cc3)C2=O)cc1` (stereo not shown), the “hERG current change (%, negative = inhibition) at 10uM” value is reported as 21.2%. On to `COc1ccccc1CN1CCN(C(=O)c2ccco2)CC1.O=C(O)C(=O)O`, for which the “hERG current change (%, negative = inhibition) at 10uM” value worked out at 1.97%. `COc1ccc(NS(=O)(=O)c2ccc(S(=O)(=O)N3CCCC3)cc2)cc1`: the “hERG current change (%, negative = inhibition) at 10uM” value is given as -5.14%. On to `c1ccc2c(c1)OCCOCCOCCO2`, for which the “hERG current change (%, negative = inhibition) at 10uM” value was 10%. As for `COC(=O)c1[nH]c2ccccc2c1NC(=O)CN1CCN(C/C=C/c2ccccc2)CC1`, the figure is -76.4%; as for `O=C(CSc1cccc(C(F)(F)F)c1)NCc1ccccc1`, -10.6%. Take `Cn1ncc(Cl)c1C(=O)NC(=S)Nc1sc2c(c1C#N)CCCCC2`: the “hERG current change (%, negative = inhibition) at 10uM” value came out at 22.5%.

With `CCOC(=O)c1[nH]c2c(c1C)C(=O)CC(c1ccc(F)cc1)C2` (stereo not shown), the “hERG current change (%, negative = inhibition) at 10uM” value is reported as 1.31%. As for `Nc1ccc2ncccc2c1N`, the “hERG current change (%, negative = inhibition) at 10uM” value stood at 6.47%. As for `O=C(NCCc1c[nH]c2ccccc12)C(=O)NCC1OCCCN1S(=O)(=O)c1cccs1` (stereo not shown), the figure is -0.324%. As to `Cc1ccc(CC(=O)NCC(C)C)cc1`, the “hERG current change (%, negative = inhibition) at 10uM” value amounted to 5.3%. On to `COc1ccccc1OCc1cc(C(=O)N2CC3C[C@@H]4CC2C[C@H](C3)C4)no1`, for which the “hERG current change (%, negative = inhibition) at 10uM” value was -6.52%. `Cc1cc(C(=O)N(C)CC(=O)Nc2ccccc2C(F)(F)F)c(C)o1`: the “hERG current change (%, negative = inhibition) at 10uM” value was -15%.

As to `O=C(COc1ccc(F)cc1)Nc1nccs1`, the “hERG current change (%, negative = inhibition) at 10uM” value was -5.65%. In the case of `COc1cc(C(CC(=O)N2CCCC2)c2c(OC)cc(OC)c3c(-c4ccccc4)cc(=O)oc23)cc(OC)c1OC` (stereo not shown), the “hERG current change (%, negative = inhibition) at 10uM” value is recorded as -10.5%. For the molecule `O=C(N/C(=C\c1ccccc1)C(=O)N1CCOCC1)c1cccc(Br)c1`, the “hERG current change (%, negative = inhibition) at 10uM” value was 18.8%.

On to `O=C(Nc1cnn(Cc2ccc(Cl)c(Cl)c2)c1)C12CC3CC(CC(C3)C1)C2`, for which the “hERG current change (%, negative = inhibition) at 10uM” value was 8.16%.

For the molecule `CCOC(=O)c1c(CN2CCN(CCO)CC2)n(-c2ccccc2)c2cc(Br)c(O)cc12`, the “hERG current change (%, negative = inhibition) at 10uM” value was -68.2%. Turning to `COc1cc(NS(C)(=O)=O)cc(OC)c1OC`, the “hERG current change (%, negative = inhibition) at 10uM” value worked out at 17.8%.

For `O=C(Cn1cc(C(F)(F)F)cc(Cl)c1=O)NC1CCS(=O)(=O)C1` (stereo not shown), the “hERG current change (%, negative = inhibition) at 10uM” value amounted to 3.32%.

Turning to `CCOC(=O)NC(=O)/C(C#N)=C/c1ccc(N(C)C)cc1`, the “hERG current change (%, negative = inhibition) at 10uM” value was found to be 12.8%.

Consider `CC(C)C1N=C2c3ccccc3N=C(SCc3cc(=O)n4cc(Cl)ccc4n3)N2C1=O` (stereo not shown), for which the “hERG current change (%, negative = inhibition) at 10uM” value was -67%. As for `N#C/C(C(N)=O)=C1/CCCN1Cc1ccccc1`, the “hERG current change (%, negative = inhibition) at 10uM” value was 3.07%. Regarding `CCOc1cc(Cl)c(S(=O)(=O)NCc2ccccn2)cc1Cl`, the “hERG current change (%, negative = inhibition) at 10uM” value is -5.91%. Regarding `COc1ccc(CC(=O)NCCS(=O)(=O)N2CCN(c3ccccc3)CC2)cc1`, the “hERG current change (%, negative = inhibition) at 10uM” value stood at 12.7%.

Turning to `COc1ccc(/C(C)=N\NS(=O)(=O)c2ccccc2)cc1OC`, the “hERG current change (%, negative = inhibition) at 10uM” value is recorded as -23.5%. The value for `CC1CCN(C(=S)NC(=O)c2cccc([N+](=O)[O-])c2)CC1` was 12.2%; that for `N#CC1=C(N)OC2=C(C(=O)CCC2)C1c1cccs1` (stereo not shown) was 9.02%; that for `COc1cc2c(cc1OC)-c1cc(OCCN3CCOCC3)nc(=O)n1CC2` was -11.5%.

With `CCC(C(=O)NCCc1ccccc1OC)n1nc(C)c2c(C)n(-c3ccccc3)nc2c1=O` (stereo not shown), the “hERG current change (%, negative = inhibition) at 10uM” value was -30%. For the molecule `Cc1ccc2cc(C(c3nnnn3C3CCCC3)N3CCN(c4ccc(F)cc4)CC3)c(=O)[nH]c2c1` (stereo not shown), the “hERG current change (%, negative = inhibition) at 10uM” value is -42.9%. As for `CNC(=S)N1CCC(c2nc3ccccc3s2)CC1`, the figure is -2.24%; as for `Cc1nn2c(-c3ccccn3)ccnc2c1Br`, 6.62%. As for `CCCC(=O)Nc1ccc(NC(=O)C23CC4CC(CC(C4)C2)C3)cn1`, the figure is 4.68%; as for `O=C(COC(=O)c1cccc(S(=O)(=O)NCc2ccccc2)c1)c1ccccc1`, -13.1%.

As for `O=C(Oc1ccccc1)c1ccc(COC(=O)c2cnccn2)cc1`, the “hERG current change (%, negative = inhibition) at 10uM” value was determined as 9.6%. As for `CSC(=NCCCN1CCOCC1)NS(=O)(=O)c1cccs1`, the “hERG current change (%, negative = inhibition) at 10uM” value stood at 7.08%. Regarding `CC(NC(=O)c1ccco1)c1ccc(-n2ccnc2)cc1` (stereo not shown), the “hERG current change (%, negative = inhibition) at 10uM” value is on record as -37%. Turning to `CC(C)(C)c1nc(NC(=O)Nc2ccccc2)sc1Br`, the “hERG current change (%, negative = inhibition) at 10uM” value is listed as 13.4%. For `Cc1nnc(SCC(=O)c2c(N)n(C)c(=O)n(C)c2=O)[nH]c1=O`, the “hERG current change (%, negative = inhibition) at 10uM” value is on record as 4.29%.

For `CC(C)(C)NC(=O)COC(=O)c1ccc(Cl)c(S(N)(=O)=O)c1`, the “hERG current change (%, negative = inhibition) at 10uM” value came out at 12.6%. Turning to `COc1ccccc1N(C(=O)c1cncc(Br)c1)c1nc(-c2ccc(C)cc2)cs1`, the “hERG current change (%, negative = inhibition) at 10uM” value is 1.07%. For `Cc1cc(S(=O)(=O)N2CCN(Cc3ccc4c(c3)OCO4)CC2)cc(C)c1N1CCCC1=O`, the “hERG current change (%, negative = inhibition) at 10uM” value is -6.5%. With `COc1cc(NC(=O)C2CCCN(S(=O)(=O)c3cccc4nsnc34)C2)cc(OC)c1` (stereo not shown), the “hERG current change (%, negative = inhibition) at 10uM” value was -1.24%. Turning to `CC(C)CN(C(=O)COC(=O)c1cnccn1)c1c(N)n(Cc2ccccc2)c(=O)[nH]c1=O`, the “hERG current change (%, negative = inhibition) at 10uM” value was determined as 16.4%. As for `CC1CCN(Cc2nnc(-c3cccc(Br)c3)o2)CC1`, the “hERG current change (%, negative = inhibition) at 10uM” value is listed as -0.585%. As for `Cc1cc(/C=N/n2cnnc2)c(C)n1-c1ccc2c(c1)OCO2`, the figure is -19.3%; as for `COc1ccc(OC)c(CN2CCN(C(=O)c3ccc(NS(=O)(=O)c4cccc([N+](=O)[O-])c4)cc3)CC2)c1`, -70.6%; as for `Cc1ccccc1-c1n[nH]c(=S)n1C`, 5.07%. Turning to `O=C(NNC(=O)c1ccccc1[N+](=O)[O-])c1ccc(NS(=O)(=O)c2cccs2)cc1`, the “hERG current change (%, negative = inhibition) at 10uM” value turned out to be 16.2%. In the case of `Cc1ccc2nc3c(cc(C(=O)NC4CCS(=O)(=O)C4)n3Cc3ccccc3)c(=O)n2c1` (stereo not shown), the “hERG current change (%, negative = inhibition) at 10uM” value came out at 19.6%. The value for `COc1cc(CNCc2ccccn2)ccc1OCc1ccc(Cl)c(Cl)c1.Cl` was -51.2%; that for `CCN(CC)P(=O)(Nc1ccc(C)cc1Br)c1ccc(N(C)C)cc1NC(=O)c1ccco1` (stereo not shown) was 18.3%; that for `Cc1ccc(-c2nc(CS(=O)(=O)CC(=O)NC3CCCCC3C)c(C)o2)cc1` (stereo not shown) was 13.1%. Turning to `CCCn1c(NCc2cccs2)nc2ccccc21`, the “hERG current change (%, negative = inhibition) at 10uM” value was -29.3%. As to `O=C(O)c1ccc(N/N=C/c2cn(Cc3ccc(F)cc3)c3ccccc23)cc1`, the “hERG current change (%, negative = inhibition) at 10uM” value turned out to be 12.2%. For `O=c1[nH][nH]c(C(F)(F)F)c1C=Nc1ccccc1Cl`, the “hERG current change (%, negative = inhibition) at 10uM” value was 9.08%. For the molecule `COC(=O)c1ccc(C)c(NC(=O)CSc2nnc3ccccn23)c1`, the “hERG current change (%, negative = inhibition) at 10uM” value is recorded as -26.1%. For the molecule `COc1cc(/C=C(\C#N)C(=O)c2c[nH]c3ccccc23)cc(OC)c1O`, the “hERG current change (%, negative = inhibition) at 10uM” value came to 4.41%. As for `CCCC(=O)Nc1nnc(-c2ccc(Cl)s2)o1`, the figure is -4.06%; as for `COc1ccc(C(C(=O)NC2CCCC2)N(C(=O)c2csnn2)C2CCCC2)cc1` (stereo not shown), -6.68%; as for `O=C(NNC(=O)c1ccc([N+](=O)[O-])cc1)c1ccc(F)cc1`, 6.25%. With `COc1ccc(CCN(Cc2cc3cccc(C)c3n3nnnc23)C(=O)c2ccncc2)cc1OC`, the “hERG current change (%, negative = inhibition) at 10uM” value was -31.7%.

`COc1ccc2nc(N=NC3=C(O)CC(C)(C)CC3=O)sc2c1`: the “hERG current change (%, negative = inhibition) at 10uM” value was determined as 13.2%. For `NNC(=O)c1ccc(Cl)cc1`, the “hERG current change (%, negative = inhibition) at 10uM” value is listed as 2.74%. With `COc1ccccc1OCCC(=O)OCC(=O)Nc1ccc(Br)cc1F`, the “hERG current change (%, negative = inhibition) at 10uM” value is given as -6.24%. `C[C@]12CC[C@@H]3c4ccc(O)cc4CC[C@H]3[C@@H]1C[C@@H](O)[C@@H]2O`: the “hERG current change (%, negative = inhibition) at 10uM” value is 1.46%. The value for `O=c1[nH]c(-c2cccs2)nc2ccccc12` was 6.51%.

`c1ccc2sc(SN3CCOCC3)nc2c1`: the “hERG current change (%, negative = inhibition) at 10uM” value is 16.7%. As for `Cc1ccc(C)c(NC(=O)c2nc(-c3ccccc3)n(-c3ccccc3)n2)c1`, the figure is -15.7%; as for `COc1cc(C2C(C#N)=C(N)Oc3c2oc(CO)cc3=O)ccc1OC(C)C` (stereo not shown), 1.04%. Take `Cc1c(NC(=O)CN2CCN(c3cccc(Cl)c3)CC2)c(=O)n(-c2ccccc2)n1C`: the “hERG current change (%, negative = inhibition) at 10uM” value turned out to be 4.56%. Take `CC1Cc2ccccc2N1C(=O)COC(=O)/C=C/c1ccc(F)cc1` (stereo not shown): the “hERG current change (%, negative = inhibition) at 10uM” value was -11.8%. The value for `CCc1ccc(S(=O)(=O)NCc2cn3c(C)csc3n2)s1` was -23.6%; that for `O=C(Nc1nc2ccc(S(=O)(=O)N3CCCC3)cc2s1)c1cccs1` was 12.7%; that for `CCOc1ccc(N=Cc2c(O)n(-c3cc(C)cc(C)c3)c(=O)[nH]c2=O)cc1` was -6.48%. For the molecule `O=C(Cc1ccc([N+](=O)[O-])cc1)c1ccc(O)cc1O`, the “hERG current change (%, negative = inhibition) at 10uM” value is on record as -40.4%. The value for `COc1ccc(NC(=O)CCc2ccc(OC)c(OC)c2)cn1` was 12.4%; that for `COc1ccc(CCNCCC(=O)Nc2c(C)cc(C)cc2C)cc1OC.Cl` was -13.8%; that for `COc1ccc(C(CCN2CCCCC2)c2c(O)cc(OC)cc2OC)cc1` (stereo not shown) was -75.2%. As for `Cc1cc2c(c(=O)n1Cc1ccccn1)C(c1ccc3c(c1)OCO3)C(C#N)=C(N)O2` (stereo not shown), the “hERG current change (%, negative = inhibition) at 10uM” value is -0.622%. Turning to `COc1ccc(NC(=O)C2C3C=CC(C3)C2C(=O)NCc2ccco2)cc1` (stereo not shown), the “hERG current change (%, negative = inhibition) at 10uM” value is -15.7%. For `CC1=C(C(N)=O)S(=O)(=O)c2ccccc21`, the “hERG current change (%, negative = inhibition) at 10uM” value stood at 15.5%. Regarding `COc1ccc(S(=O)(=O)c2ccc(OC)c(OC)c2)cc1OC`, the “hERG current change (%, negative = inhibition) at 10uM” value is -12.2%. As for `CC1CN(c2nnc(-c3ccccc3)c3ccccc23)CC(C)O1` (stereo not shown), the figure is -10.8%; as for `CCOc1ccc(NS(=O)(=O)c2ccc(N)cc2)cc1`, 10.1%.

Turning to `CCCSc1nc2c(c(=O)[nH]c(=O)n2C)n1CC(O)COc1ccccc1` (stereo not shown), the “hERG current change (%, negative = inhibition) at 10uM” value is reported as -20.5%. Regarding `COc1ccc(-n2cnnc2SCC(=O)N(C)c2ccccc2)cc1`, the “hERG current change (%, negative = inhibition) at 10uM” value is -15.3%.
